The list shows a part of the results.
B1: PhoQ; a variant is named by its letters at X, in order, P23837 (parent)
chain: MKKLLRLFFPLSLRVRFLLATAAVVLVLSLAYGMVALIGYSVSFDKTTFRLLRGESNLFYTLAKWENNKLHVELPENIDKQSPTMTLIYDENGQLLWAQRDVPWLMKMIQPDWLKSNGFHEIEADVNDTSLLLSGDHSIQQQLQEVREDDDDAEMTHSVAVNVYPATSRMPKLTIVVVDTIPVELKSSYMVWSWFIYVLSANLLLVIPLLWVAAWWSLRPIEALAKEVRELEEHNRELLNPATTRELTSLVRNLNRLLKSERERYDKYRTTLTDLTHSLKTPLXXLQXXLRSLRSEKMSVSDAEPVMLEQISRISQQIGYYLHRASMRGGTLLSRELHPVAPLLDNLTSALNKVYQRKGVNISLDISPEISFVGEQNDFVEVMGNVLDNACKYCLEFVEISARQTDEHLYIVVEDDGPGIPLSKREVIFDRGQRVDTLRPGQGVGLAVAREITEQYEGKIVAGESMLGGARMEVIFGRQHSAPKDE

Variants of: B1
Test: enrichment ratio after two sorts for PhoP signalling (ratio (wild type AVST 3.29)); higher = more functional
Details: with PhoP (E. coli)

Variant | enrichment ratio
RFAQ | ≤ 0.25
FEPI | ≤ 0.25
IYHM | ≤ 0.25
IKSM | ≤ 0.25
SMLE | 8.43
TSMA | 9.58
HGIL | 5.72
RNMQ | ≤ 0.25
IEVH | ≤ 0.25
WGGF | ≤ 0.25
IWHL | ≤ 0.25
QFPD | ≤ 0.25
RSRW | ≤ 0.25
EHRY | ≤ 0.25
GNVA | ≤ 0.25
WNNR | 0.794
RRRA | ≤ 0.25
WLYE | ≤ 0.25
PKGY | ≤ 0.25
VMHQ | ≤ 0.25
SSQT | 2.32

Variant | enrichment ratio
YNWY | ≤ 0.25
AESA | 8.72
ENPG | ≤ 0.25
LKTT | ≤ 0.25
KSGF | ≤ 0.25
PHHN | ≤ 0.25
QHIM | ≤ 0.25
HDCF | ≤ 0.25
SCTQ | 9.21
RAKD | ≤ 0.25
MCEW | ≤ 0.25
NGHW | ≤ 0.25
YRQL | ≤ 0.25
KFIK | ≤ 0.25
SFPH | ≤ 0.25
TITR | 1.27
RTGF | ≤ 0.25
KVKN | ≤ 0.25
RQFQ | ≤ 0.25
NFMM | ≤ 0.25
AESR | 3.86

Variant | enrichment ratio
DYWH | ≤ 0.25
PDAF | ≤ 0.25
WMYH | ≤ 0.25
MSKI | ≤ 0.25
RHFE | ≤ 0.25
FHCC | ≤ 0.25
IICY | ≤ 0.25
TCYH | 2.68
KEVV | ≤ 0.25
RQGD | ≤ 0.25
MVRH | ≤ 0.25
FTSV | ≤ 0.25
QNTH | ≤ 0.25
NMPP | ≤ 0.25
VMEE | ≤ 0.25
TKGH | ≤ 0.25
FCSL | 0.351
ISEM | ≤ 0.25
QRIC | ≤ 0.25
HRPG | ≤ 0.25
LYAG | ≤ 0.25

Variant | enrichment ratio
KLSH | ≤ 0.25
KFFN | ≤ 0.25
AHIQ | ≤ 0.25
KGWC | ≤ 0.25
FTCQ | 7.15
YLCY | ≤ 0.25
SNTV | 9.06
PEML | ≤ 0.25
NDWG | ≤ 0.25
WHQH | ≤ 0.25
FRQT | ≤ 0.25
KGHF | ≤ 0.25
NTHK | ≤ 0.25
WHGM | ≤ 0.25
FICI | 6.17
GCVD | ≤ 0.25
LFLW | ≤ 0.25
MNHP | ≤ 0.25
DHCY | ≤ 0.25
YMDP | ≤ 0.25
RSAV | ≤ 0.25

From a collection of fitness landscapes (doi:10.1126/science.1257360)
